For 24 molecules, cytotoxicity call and growth inhibition call results are on record in the antibiotic and cytotoxicity screens of Wong et al. (2023).

The list shows a part of the results.

For one experiment, the system named is HSkMC. Kind of experiment: cytotoxicity call (relative viability < 0.9). As to conditions: 10 µM.
The subject of another experiment is HepG2. Nature of the experiment: cytotoxicity call (relative viability < 0.9). As to conditions: 10 µM.
The subject of another experiment is S. aureus RN4220. Nature of the experiment: growth inhibition call (relative growth <= 0.2). As to conditions: 50 µM.

With `C[C@@H]1CN([C@H](C)CO)C(=O)c2cccc(NS(=O)(=O)c3cn(C)cn3)c2O[C@@H]1CN(C)Cc1ccccc1`, the cytotoxicity call with HSkMC and in the experiment with HepG2 was “inactive” in each case. Also, the growth inhibition call with S. aureus RN4220 is “inactive”.
For the molecule `C[C@@H]1CCCCO[C@H](CN(C)Cc2ccncc2)[C@@H](C)CN([C@@H](C)CO)C(=O)c2cc(NC(=O)C3CCCCC3)ccc2O1`, the cytotoxicity call in the experiment with HSkMC and in the experiment with HepG2 was “inactive” each time. Further, the growth inhibition call with S. aureus RN4220 was “inactive”.
As to `COC(=O)C1(C)CCCC2(C)c3ccc(O)c(C(C)C)c3CCC12` (configuration not stated), the cytotoxicity call with HSkMC and in the experiment with HepG2 was “active” each time. In addition, the growth inhibition call in the experiment with S. aureus RN4220 is “inactive”.
As to `C[C@@H]1CN([C@H](C)CO)C(=O)c2cc(NC(=O)CCC(F)(F)F)ccc2O[C@@H](C)CCCCO[C@@H]1CN(C)Cc1ccc(C(F)(F)F)cc1`, the cytotoxicity call with HSkMC and in the experiment on HepG2 was “inactive” each time. Moreover, the growth inhibition call with S. aureus RN4220 is “inactive”.
As to `CCc1ccc(NC(=O)Cc2coc3ccc(C(C)C)cc23)cc1`, the cytotoxicity call in the experiment with HSkMC and in the experiment with HepG2 was “inactive” in each case. Also, the growth inhibition call with S. aureus RN4220 is “inactive”.
As for `C[C@@H]1CN([C@@H](C)CO)C(=O)c2ccccc2-c2ccccc2CO[C@@H]1CN(C)Cc1ccc(-c2ccccc2)cc1`, the cytotoxicity call in the experiment on HSkMC and in the experiment on HepG2 was “inactive” throughout. The growth inhibition call in the experiment on S. aureus RN4220 was “inactive”.
With `C[C@@H]1CN([C@H](C)CO)C(=O)c2cccc(NS(=O)(=O)c3ccc(F)cc3)c2O[C@@H]1CN(C)Cc1ccc(Oc2ccccc2)cc1`, the cytotoxicity call in the experiment on HSkMC and in the experiment with HepG2 was “inactive” throughout. The growth inhibition call with S. aureus RN4220 is “inactive”.
On to `C[C@@H]1CN([C@H](C)CO)C(=O)c2cc(NC(=O)Cc3ccccc3)ccc2O[C@@H](C)CCCCO[C@@H]1CN(C)Cc1ccc(C(F)(F)F)cc1`, for which the cytotoxicity call in the experiment with HSkMC and in the experiment on HepG2 was “inactive” throughout. Besides, the growth inhibition call with S. aureus RN4220 was “inactive”.
Consider `C[C@@H]1CN([C@H](C)CO)C(=O)c2cc(NS(=O)(=O)c3ccccc3)ccc2O[C@@H](C)CCCCO[C@H]1CN(C)S(=O)(=O)c1ccc(Cl)cc1`, for which the cytotoxicity call in the experiment with HSkMC and in the experiment on HepG2 was “active” each time. Also, the growth inhibition call with S. aureus RN4220 is “inactive”.
As for `COc1ccc(NC(=O)Nc2ccc3c(c2)C(=O)N([C@@H](C)CO)C[C@H](C)[C@H](CN(C)Cc2ccc4c(c2)OCO4)OCCCC[C@H](C)O3)cc1`, the cytotoxicity call in the experiment on HSkMC is “active”. The cytotoxicity call in the experiment on HepG2 was “inactive”. Moreover, in the experiment with S. aureus RN4220, the growth inhibition call was “inactive”.
For the molecule `N#CCN1CCNCC1`, the cytotoxicity call in the experiment on HSkMC and in the experiment on HepG2 was “inactive” throughout. For the same molecule, the growth inhibition call in the experiment with S. aureus RN4220 was “inactive”.
Consider `C[C@H](CO)N1C[C@H](C)[C@@H](CN(C)C(=O)Nc2ccc3c(c2)OCO3)Oc2ncc(-c3cccnc3)cc2C1=O`, for which the cytotoxicity call with HSkMC and in the experiment on HepG2 was “inactive” each time. In addition, in the experiment on S. aureus RN4220, the growth inhibition call is “inactive”.
`C[C@H]1CN([C@@H](C)CO)C(=O)c2cccc(NS(C)(=O)=O)c2O[C@H]1CN(C)C(=O)Nc1ccc(C(F)(F)F)cc1`: the cytotoxicity call in the experiment on HSkMC and in the experiment with HepG2 was “inactive” in each case. In addition, in the experiment with S. aureus RN4220, the growth inhibition call is “inactive”.
`C[C@H]1CN([C@@H](C)CO)C(=O)CCCn2cc(nn2)CO[C@H]1CN(C)C(=O)CCCN(C)C`: the cytotoxicity call in the experiment on HSkMC and in the experiment on HepG2 was “inactive” throughout. The growth inhibition call in the experiment with S. aureus RN4220 was “inactive”.
For the molecule `CN1C2CCCC1CC(NC(=O)c1nn(C)c3ccccc13)C2.Cl` (configuration not stated), the cytotoxicity call with HSkMC and in the experiment on HepG2 was “inactive” each time. For the same molecule, in the experiment on S. aureus RN4220, the growth inhibition call is “inactive”.
Turning to `C[C@H](CO)N1C[C@H](C)[C@H](CN(C)S(=O)(=O)c2ccc(C#N)cc2)Oc2ncc(Br)cc2C1=O`, the cytotoxicity call in the experiment on HSkMC and in the experiment on HepG2 was “inactive” each time. Besides, the growth inhibition call in the experiment on S. aureus RN4220 was “inactive”.
As to `Cc1noc(C)c1NC(=O)Nc1ccc2c(c1)C(=O)N([C@H](C)CO)C[C@@H](C)[C@H](CN(C)C(=O)Nc1cccc3ccccc13)OCCCC[C@@H](C)O2`, the cytotoxicity call with HSkMC and in the experiment with HepG2 was “inactive” throughout. Further, the growth inhibition call in the experiment with S. aureus RN4220 is “inactive”.
For the molecule `Cc1ccc(S(=O)(=O)Nc2ccc3c(c2)C(=O)N([C@@H](C)CO)C[C@@H](C)[C@@H](CN(C)S(=O)(=O)c2ccc(F)cc2)OCCCC[C@@H](C)O3)cc1`, the cytotoxicity call in the experiment with HSkMC and with HepG2 was “inactive” each time. The growth inhibition call with S. aureus RN4220 was “inactive”.
Turning to `C[C@@H]1CCCCO[C@H](CN(C)S(=O)(=O)c2ccc(Cl)cc2)[C@@H](C)CN([C@@H](C)CO)C(=O)c2cc(NC(=O)Nc3ccc(F)cc3)ccc2O1`, the cytotoxicity call in the experiment on HSkMC and in the experiment on HepG2 was “inactive” in each case. In addition, in the experiment with S. aureus RN4220, the growth inhibition call was “inactive”.
With `O=C1O[C@H](c2ccccc2)[C@H](c2ccccc2)N2[C@H]1[C@@H](C(=O)N1CCCCCCC1)[C@]1(C(=O)Nc3ccc(C#CCCO)cc31)[C@H]2c1ccc(OCCO)cc1`, the cytotoxicity call in the experiment on HSkMC and with HepG2 was “inactive” throughout. The growth inhibition call in the experiment on S. aureus RN4220 was “inactive”.
With `CCCN(C)C[C@@H]1OCCCC[C@@H](C)Oc2ccc(NC(=O)Cc3ccccc3)cc2C(=O)N([C@H](C)CO)C[C@@H]1C`, the cytotoxicity call in the experiment with HSkMC and in the experiment with HepG2 was “inactive” in each case. Further, in the experiment with S. aureus RN4220, the growth inhibition call was “inactive”.
On to `CC(C)NC(=O)N(C)C[C@H]1Oc2ccc(NS(=O)(=O)c3ccccc3)cc2CC(=O)N([C@@H](C)CO)C[C@@H]1C`, for which the cytotoxicity call in the experiment with HSkMC and with HepG2 was “inactive” each time. Moreover, the growth inhibition call in the experiment with S. aureus RN4220 is “inactive”.
In the case of `C[C@@H]1CN([C@@H](C)CO)C(=O)c2cc(NC(=O)Nc3ccc(F)cc3)ccc2O[C@@H]1CN(C)Cc1ccc(Cl)c(Cl)c1`, the cytotoxicity call with HSkMC and in the experiment on HepG2 was “active” in each case. The growth inhibition call with S. aureus RN4220 is “inactive”.
With `C[C@@H]1CCCCO[C@@H](CN(C)CC2CC2)[C@H](C)CN([C@@H](C)CO)C(=O)c2cc(NC(=O)c3ccccc3)ccc2O1`, the cytotoxicity call in the experiment on HSkMC (human skeletal muscle cells) and with HepG2 was “inactive” in each case. Besides, the growth inhibition call in the experiment with S. aureus RN4220 is “inactive”.
